Test results reported in the supplement of paper PMC4604168 (melanoma cell lines).
The list shows a part of the results. Most values come without repeats; read them as rough.

Experiments:
Assay in all cases: cell count relative to DMSO control; melanoma cells; higher = more viable cells
Conditions in all cases: library dose: low library concentration; 72 h
WM115 = tested on: WM115
WM1716 = tested on: WM1716
WM1745 = tested on: WM1745
WM3526 = tested on: WM3526
WM3619 = tested on: WM3619
WM451Lu = tested on: WM451Lu
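Note: cell number obtained by counting DAPI-stained nuclei in high-throughput microscope images with image analysis software, screen run in 1,536-well plates.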

SMILES | cell count (WM115) [%] | cell count (WM1716) [%] | cell count (WM1745) [%] | cell count (WM3526) [%] | cell count (WM3619) [%] | cell count (WM451Lu) [%]
CC1(C)CCC(c2ccc(Cl)cc2)=C(CN2CCN(c3ccc(C(=O)NS(=O)(=O)c4ccc(N[C@H](CCN5CCOCC5)CSc5ccccc5)c(S(=O)(=O)C(F)(F)F)c4)cc3)CC2)C1 + C#Cc1cccc(Nc2ncnc3cc(OCCOC)c(OCCOC)cc23)c1 [erlotinib] (first compound 0.4 µM, partner dose 0.8 µM) | 77.3 | 73.5 | 8.36 | 94 | 74 | 97.2
O=C(/C=C/c1cccnc1)NCCCCC1CCN(C(=O)c2ccccc2)CC1 + Clc1ccc(Nc2nnc(Cc3ccncc3)c3ccccc23)cc1 [vatalanib] (first compound 0.01 µM, partner dose 2 µM) | 96.8 | 98 | 98.1 | 106 | 79.7 | 107
CC1(C)CCC(c2ccc(Cl)cc2)=C(CN2CCN(c3ccc(C(=O)NS(=O)(=O)c4ccc(N[C@H](CCN5CCOCC5)CSc5ccccc5)c(S(=O)(=O)C(F)(F)F)c4)cc3)CC2)C1 + CN(NC(=O)CC(=O)NN(C)C(=S)c1ccccc1)C(=S)c1ccccc1 [STA4783] (first compound 0.4 µM, partner dose 0.006 µM) | 59 | 65.8 | 8.33 | 68.4 | 64.4 | 121
O=C(/C=C/c1cccnc1)NCCCCC1CCN(C(=O)c2ccccc2)CC1 + C[C@]1(c2nc3c(C(N)=O)cccc3[nH]2)CCCN1 [Veliparib] (first compound 0.01 µM, partner dose 1.4 µM) | 93.7 | 88.5 | 99.9 | 129 | 95.5 | 108
CC1(C)CCC(c2ccc(Cl)cc2)=C(CN2CCN(c3ccc(C(=O)NS(=O)(=O)c4ccc(N[C@H](CCN5CCOCC5)CSc5ccccc5)c(S(=O)(=O)C(F)(F)F)c4)cc3)CC2)C1 + CCN(CC)CCNC(=O)c1c(C)[nH]c(/C=C2\C(=O)Nc3ccc(F)cc32)c1C [sunitinib] (first compound 0.4 µM, partner dose 0.4 µM) | 76.1 | 97.6 | 8.95 | 117 | 130 | 85.5
O=C(/C=C/c1cccnc1)NCCCCC1CCN(C(=O)c2ccccc2)CC1 + COc1ccc(C2=N[C@@H](c3ccc(Cl)cc3)[C@@H](c3ccc(Cl)cc3)N2C(=O)N2CCNC(=O)C2)c(OC(C)C)c1 [Nutlin-3] (first compound 0.01 µM, partner dose 0.1 µM) | 99.7 | 102 | 97.3 | 101 | 80.1 | 99.2
CC1(C)CCC(c2ccc(Cl)cc2)=C(CN2CCN(c3ccc(C(=O)NS(=O)(=O)c4ccc(N[C@H](CCN5CCOCC5)CSc5ccccc5)c(S(=O)(=O)C(F)(F)F)c4)cc3)CC2)C1 + C[C@]1(O)C[C@@H](c2nc(-c3ccc4ccc(-c5ccccc5)nc4c3)c3c(N)nccn32)C1 [OSI906] (first compound 0.4 µM, partner dose 0.4 µM) | 92.1 | 85.8 | 6.46 | 67.2 | 87.1 | 76.5
Cc1ccc(Nc2nccc(N(C)c3ccc4c(C)n(C)nc4c3)n2)cc1S(N)(=O)=O [Pazopanib] + Cn1c(=O)n(-c2ccc(C(C)(C)C#N)cc2)c2c3cc(-c4cnc5ccccc5c4)ccc3ncc21 [NVP-BEZ235] (first compound 0.4 µM, partner dose 0.004 µM) | 83.8 | 77.9 | 95.7 | 86.1 | 80.7 | 83.5
CC1(C)CCC(c2ccc(Cl)cc2)=C(CN2CCN(c3ccc(C(=O)NS(=O)(=O)c4ccc(N[C@H](CCN5CCOCC5)CSc5ccccc5)c(S(=O)(=O)C(F)(F)F)c4)cc3)CC2)C1 + COc1cc2c(Oc3ccc4[nH]c(C)cc4c3F)ncnc2cc1OCCCN1CCCC1 [cediranib] (first compound 0.4 µM, partner dose 0.4 µM) | 89.6 | 70.6 | 8.9 | 96 | 94.6 | 81.8
CC1(C)CCC(c2ccc(Cl)cc2)=C(CN2CCN(c3ccc(C(=O)NS(=O)(=O)c4ccc(N[C@H](CCN5CCOCC5)CSc5ccccc5)c(S(=O)(=O)C(F)(F)F)c4)cc3)CC2)C1 + O=C(O)C(=O)Nc1sc2c(c1C(=O)O)CCNC2 [TCS401] (first compound 0.4 µM, partner dose 1.66667 µM) | 89.9 | 83.6 | 7.46 | 85.4 | 86.6 | 74.8
